Data: a collection of fitness landscapes (doi:10.1016/j.celrep.2020.107928)
In all, about 81,000 sequences were measured (“one-hybrid fitness for binding NBS DNA”: median about -0.1, highest 2% from about 0.36 on). This is one part of the list.

B1: Caulobacter ParB omega fusion; a variant is named by its letters at X, in order, B8GW30 (parent)
chain: MESVVVGEPGMSEGRRGLGRGLSALLGEVDAAPAQAPGEQLGGSREAPIEILQRNPDQPRRTFREEDLEDLSNSIREKGVLQPILVRPSPDTAGEYQIVAGERAWRAAQRAGLKTVPIMVRELDDLAVLEIGIIENVQRADLNVLEEALSYKVLMEKFERTQENIAQTIGKSXSHVANXMRLLXLPDEVQSYLVSGELTAXHARAIAAAADPVALAKQIIEGGLSVRETEALARKAPNLSAGKSKGGRPPRVKDTDTQALESDLSSVLGLDVSIDHRGSTGTLTITYATLEQLDDLCNRLTRGI

Variants of: B1
Test: one-hybrid fitness for binding NBS DNA (the Noc-binding site; scaled: cognate 1, non-cognate 0); higher = stronger binding
Settings: with NBS DNA site
Summary of the method: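 Values were rescaled so that cognate is 1 and non-cognate is 0. Each is a fitness, the log change in a variant's read ratio to wild type from Illumina reads of plasmids before and after selection, with three replicate libraries pooled and variants under 10 reads dropped. Selection of the Caulobacter ParB libraries, four specificity codons randomised, used E. coli USO with a HIS3 reporter, site 19 bp from the promoter, on M9-minus-histidine with 0.1 mM IPTG and 5 mM 3-AT for 48 hours at 37°C.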

| Variant | one-hybrid fitness for binding NBS DNA |
| --- | --- |
| LTAY | ≤ 0.2 |
| EVWM | ≤ 0.2 |
| YRQA | ≤ 0.2 |
| LKSK | ≤ 0.2 |
| NQKA | ≤ 0.2 |
| QCET | 0.352 |
| LWTM | ≤ 0.2 |
| AGHP | ≤ 0.2 |
| IVKR | ≤ 0.2 |
| KWLL | ≤ 0.2 |
| LVRV | ≤ 0.2 |
| WRRV | ≤ 0.2 |
| CMSW | ≤ 0.2 |
| VMTV | ≤ 0.2 |
| SMKL | ≤ 0.2 |
| PTNI | ≤ 0.2 |
| PTHG | ≤ 0.2 |
| WRLF | ≤ 0.2 |
| ERGG | ≤ 0.2 |
| YPNY | ≤ 0.2 |
| MTDK | ≤ 0.2 |
| WRLM | ≤ 0.2 |
| LRPE | ≤ 0.2 |
| VDAL | ≤ 0.2 |

| Variant | one-hybrid fitness for binding NBS DNA |
| --- | --- |
| NTSR | ≤ 0.2 |
| QRGS | 0.7 |
| LDAK | ≤ 0.2 |
| TMAF | ≤ 0.2 |
| RKRH | 0.429 |
| GALL | ≤ 0.2 |
| NQHP | ≤ 0.2 |
| DTEM | ≤ 0.2 |
| WTTN | ≤ 0.2 |
| LNKV | ≤ 0.2 |
| NTNK | ≤ 0.2 |
| PTNP | ≤ 0.2 |
| STSL | ≤ 0.2 |
| GSTH | ≤ 0.2 |
| THCQ | ≤ 0.2 |
| GMND | ≤ 0.2 |
| HPQF | ≤ 0.2 |
| SAIP | ≤ 0.2 |
| PRYR | ≤ 0.2 |
| CFPD | ≤ 0.2 |
| FHCR | ≤ 0.2 |
| GHPL | ≤ 0.2 |
| KVSR | ≤ 0.2 |
| PCQS | ≤ 0.2 |

| Variant | one-hybrid fitness for binding NBS DNA |
| --- | --- |
| DPGR | ≤ 0.2 |
| VQPC | ≤ 0.2 |
| RTCD | ≤ 0.2 |
| ALWL | ≤ 0.2 |
| PGKQ | ≤ 0.2 |
| LLKR | ≤ 0.2 |
| LCRY | ≤ 0.2 |
| ALAA | ≤ 0.2 |
| RPYY | ≤ 0.2 |
| YDVC | ≤ 0.2 |
| HGKM | ≤ 0.2 |
| VECS | ≤ 0.2 |
| SRVC | ≤ 0.2 |
| SINW | ≤ 0.2 |
| PWAV | ≤ 0.2 |
| TTSV | ≤ 0.2 |
| RARP | ≤ 0.2 |
| KSKI | ≤ 0.2 |
| QLHL | ≤ 0.2 |
| SPNC | ≤ 0.2 |
| ILHC | ≤ 0.2 |
| TCDR | ≤ 0.2 |
| TMGF | ≤ 0.2 |
| RWRK | ≤ 0.2 |

| Variant | one-hybrid fitness for binding NBS DNA |
| --- | --- |
| MKSC | ≤ 0.2 |
| GSDL | ≤ 0.2 |
| YQKT | ≤ 0.2 |
| KREP | ≤ 0.2 |
| QHRL | 0.221 |
| PISS | ≤ 0.2 |
| HPRC | ≤ 0.2 |
| PHAP | ≤ 0.2 |
| KYNN | ≤ 0.2 |
| SQMC | ≤ 0.2 |
| QWSL | ≤ 0.2 |
| TTEG | ≤ 0.2 |
| YAVV | ≤ 0.2 |
| GAKN | ≤ 0.2 |
| LQAD | ≤ 0.2 |
| IPMG | ≤ 0.2 |
| TACI | ≤ 0.2 |
| AGPF | ≤ 0.2 |
| AIAC | ≤ 0.2 |
| KTEN | ≤ 0.2 |
| HYQR | ≤ 0.2 |
| FMRC | ≤ 0.2 |
| WNPL | ≤ 0.2 |
| WLST | ≤ 0.2 |

| Variant | one-hybrid fitness for binding NBS DNA |
| --- | --- |
| KHGP | ≤ 0.2 |
| NNCE | ≤ 0.2 |
| DSDS | ≤ 0.2 |
| YIIS | ≤ 0.2 |
| MGHL | ≤ 0.2 |
| QDMD | ≤ 0.2 |
| PAYG | ≤ 0.2 |
| PDLV | ≤ 0.2 |
| YSED | ≤ 0.2 |
| VLGE | ≤ 0.2 |
| HLTM | ≤ 0.2 |
| HFPA | ≤ 0.2 |
| ELWL | ≤ 0.2 |
| NPNM | ≤ 0.2 |
| GLYG | ≤ 0.2 |
| PLEL | ≤ 0.2 |
| HWSC | ≤ 0.2 |
| PTCA | ≤ 0.2 |
| WLIT | ≤ 0.2 |
| DTHG | ≤ 0.2 |
| PICF | ≤ 0.2 |
| PTPW | ≤ 0.2 |
| QGES | ≤ 0.2 |
| NHGS | ≤ 0.2 |

| Variant | one-hybrid fitness for binding NBS DNA |
| --- | --- |
| RTVR | 0.416 |
| PTWQ | ≤ 0.2 |
| QCPT | 0.382 |
| AAPK | ≤ 0.2 |
| VCRY | ≤ 0.2 |
| HIYP | ≤ 0.2 |
| GCAS | ≤ 0.2 |
| GATM | ≤ 0.2 |
| RILC | ≤ 0.2 |
| GLSV | ≤ 0.2 |
| NFRG | ≤ 0.2 |
| AEST | ≤ 0.2 |
| GPPE | ≤ 0.2 |
| FWKN | ≤ 0.2 |
| TVVT | ≤ 0.2 |
| QSDW | ≤ 0.2 |
| DVQR | ≤ 0.2 |
| SWMA | ≤ 0.2 |
| PVPN | ≤ 0.2 |
| RRYS | 0.661 |
| LTHF | ≤ 0.2 |
| SGSY | ≤ 0.2 |
| GVYS | ≤ 0.2 |
| GANA | ≤ 0.2 |

| Variant | one-hybrid fitness for binding NBS DNA |
| --- | --- |
| LTNN | ≤ 0.2 |
| AKPQ | ≤ 0.2 |
| DTCE | ≤ 0.2 |
| QNWR | ≤ 0.2 |
| SPGP | ≤ 0.2 |
| ICPG | ≤ 0.2 |
| PMTG | ≤ 0.2 |
| FPQG | ≤ 0.2 |
| DQTV | ≤ 0.2 |
| FCYP | ≤ 0.2 |
| VIDT | ≤ 0.2 |
| NAAS | ≤ 0.2 |
| SRSD | ≤ 0.2 |
| ANLC | ≤ 0.2 |
| MLNS | ≤ 0.2 |
| HKWG | ≤ 0.2 |
| RIER | ≤ 0.2 |
| VYVR | ≤ 0.2 |
| LKNM | ≤ 0.2 |
| CCKC | ≤ 0.2 |
| RFNI | ≤ 0.2 |
| QFNL | ≤ 0.2 |
| KFHR | ≤ 0.2 |
| NTQC | ≤ 0.2 |

| Variant | one-hybrid fitness for binding NBS DNA |
| --- | --- |
| HESS | ≤ 0.2 |
| RSAE | ≤ 0.2 |
| PSMR | ≤ 0.2 |
| VVVW | ≤ 0.2 |
| FMFS | ≤ 0.2 |
| SFSY | ≤ 0.2 |
| QDKD | ≤ 0.2 |
| LNDT | ≤ 0.2 |
| RQAK | ≤ 0.2 |
| PAKY | ≤ 0.2 |
| SRAE | ≤ 0.2 |
| DLRG | ≤ 0.2 |
| PKCT | ≤ 0.2 |
| FDNN | ≤ 0.2 |
| GDYS | ≤ 0.2 |
| RFII | ≤ 0.2 |
| VGGR | ≤ 0.2 |
| DSVF | ≤ 0.2 |
| IRQG | ≤ 0.2 |
| LNVL | ≤ 0.2 |
| NVWR | ≤ 0.2 |
| RNSC | ≤ 0.2 |
| RHHA | ≤ 0.2 |
| MGAV | ≤ 0.2 |

| Variant | one-hybrid fitness for binding NBS DNA |
| --- | --- |
| RQTH | ≤ 0.2 |
| RVFP | ≤ 0.2 |
| VYIG | ≤ 0.2 |
| QMKK | 0.436 |
| ATDC | ≤ 0.2 |
| RENM | ≤ 0.2 |
| TYSC | ≤ 0.2 |
| FEQR | ≤ 0.2 |
| MKKG | ≤ 0.2 |
| ATLT | ≤ 0.2 |
| FTIS | ≤ 0.2 |
| PVLS | ≤ 0.2 |
| RSDP | ≤ 0.2 |
| RHYH | ≤ 0.2 |
| REST | ≤ 0.2 |
| FNRD | ≤ 0.2 |
| PHLL | ≤ 0.2 |
| CSGY | ≤ 0.2 |
| EFHL | ≤ 0.2 |
| YSRC | ≤ 0.2 |
| CSPR | ≤ 0.2 |
| WYEY | ≤ 0.2 |
| LRII | ≤ 0.2 |
| ILRA | ≤ 0.2 |

| Variant | one-hybrid fitness for binding NBS DNA |
| --- | --- |
| CQSS | ≤ 0.2 |
| QVNT | 0.44 |
| QCLW | ≤ 0.2 |
| NNGN | ≤ 0.2 |
| SPAK | ≤ 0.2 |
| ILWW | ≤ 0.2 |
| QWLA | ≤ 0.2 |
| GDVI | ≤ 0.2 |
| KVYC | ≤ 0.2 |
| AFQG | ≤ 0.2 |
| PASI | ≤ 0.2 |
| RKQD | ≤ 0.2 |
| ESIY | ≤ 0.2 |
| DGHT | ≤ 0.2 |
| WNVG | ≤ 0.2 |
| PDQL | ≤ 0.2 |
| SNNT | ≤ 0.2 |
| FRRL | ≤ 0.2 |
| DTPS | ≤ 0.2 |
| PLSL | ≤ 0.2 |
| HLFR | ≤ 0.2 |
| CAPI | ≤ 0.2 |
| TNYQ | ≤ 0.2 |
| QKCD | ≤ 0.2 |

| Variant | one-hybrid fitness for binding NBS DNA |
| --- | --- |
| TFSA | ≤ 0.2 |
| GADG | ≤ 0.2 |
| ARWT | ≤ 0.2 |
| WGKS | ≤ 0.2 |
| VTMR | ≤ 0.2 |
| LALD | ≤ 0.2 |
| LPWS | ≤ 0.2 |
| IMPV | ≤ 0.2 |
| HCMC | ≤ 0.2 |
| PRAI | ≤ 0.2 |
| PRKH | ≤ 0.2 |
| GGAC | ≤ 0.2 |
| NYPR | ≤ 0.2 |
| CHTK | ≤ 0.2 |
| TARF | ≤ 0.2 |
| ATHG | ≤ 0.2 |
| SYQV | ≤ 0.2 |
| DSQS | ≤ 0.2 |
| LSTF | ≤ 0.2 |
| TVSF | ≤ 0.2 |
| TCTV | ≤ 0.2 |
| CQSA | ≤ 0.2 |
| NCKD | ≤ 0.2 |
| HQRM | ≤ 0.2 |

| Variant | one-hybrid fitness for binding NBS DNA |
| --- | --- |
| HESG | ≤ 0.2 |
| ERTR | ≤ 0.2 |
| RVMK | ≤ 0.2 |
| NTHG | ≤ 0.2 |
| NCPR | ≤ 0.2 |
| PWDY | ≤ 0.2 |
| STAN | ≤ 0.2 |
| LAPD | ≤ 0.2 |
| RIMG | ≤ 0.2 |
| CLVT | ≤ 0.2 |
| LPQA | ≤ 0.2 |
| YKLC | ≤ 0.2 |
| ENCR | ≤ 0.2 |
| VDLE | ≤ 0.2 |
| VLPH | ≤ 0.2 |
| QIDE | ≤ 0.2 |
| YMSG | ≤ 0.2 |
| PVTK | ≤ 0.2 |
| YDQM | ≤ 0.2 |
| ILAM | ≤ 0.2 |
| IRNF | ≤ 0.2 |
| ATGA | ≤ 0.2 |
| KKQP | ≤ 0.2 |
| LTCA | ≤ 0.2 |

| Variant | one-hybrid fitness for binding NBS DNA |
| --- | --- |
| ACKH | ≤ 0.2 |
| QAQC | ≤ 0.2 |
| PHKL | ≤ 0.2 |
| TSDS | ≤ 0.2 |
| GCDR | ≤ 0.2 |
| FTHC | ≤ 0.2 |
| TATT | ≤ 0.2 |
| KCGR | ≤ 0.2 |
| IEWL | ≤ 0.2 |
| SKAH | ≤ 0.2 |
| TPTG | ≤ 0.2 |
| CYGG | ≤ 0.2 |
| PGCE | ≤ 0.2 |
| GWSN | ≤ 0.2 |
| SWPS | ≤ 0.2 |
| SWQM | ≤ 0.2 |
| QQSM | ≤ 0.2 |
| TKHW | ≤ 0.2 |
